Read counts are not given, so values of variants with three or more changes are uncertain.
B1: LINE1-mini (parent)
chain: GGCAGAGCUCAACACAGCGUGGCAAAGUGGCUGUGGCUAGACUGCC

Variants of: B1
Experiment: self-cleavage, relative activity (ratio to wild type); higher = more cleavage; in vitro, sequencing; the parent is a self-cleaving ribozyme
UGCAGAGGUCAAUACAGCGUGGCAAAGUGGCUGUGGCUAGACUGCC [G1U C8G C13U] gave a self-cleavage of 0.14. UGCAGAGCUGAACACAGCGUGGAAAAGUGGCUGUGGCUAGACUGCC [G1U C10G C23A] showed a self-cleavage of 0. With UGUAGAGCUCAUCACAGCGGGGCGAAGUGGCUGUGGCUAGACUGCC [G1U C3U A12U U20G A24G] the self-cleavage was 0.19. In the case of UGCAGAGUUCAACUCAGCGCGGCAUAGCGGCUGUGUCUAGACUGCC [G1U C8U A14U U20C A25U U28C G36U], the self-cleavage is reported as 0.16. UGCAGAGCUCAAGACAUCGUGUCUAAGUGGCUGUGGCUACACUGCC [G1U C13G G17U G22U A24U G40C] showed a self-cleavage of 0.24. For UGGAGAGCUCAACACAGCGUGGCAAAGUGGCUGUGGCUAAACUGCC [G1U C3G G40A], the self-cleavage was 0.02. Work on UGGAGAGCUCAACACAGCGUGGCAAAGUGGCUGUGGCUACACUGCC [G1U C3G G40C] yielded a self-cleavage of 0.05. UGCAGAGCUGAACACAGCGUGGCAAAGUGGCUGUGGCUAGACUGCU [G1U C10G C46U] gave a self-cleavage of 0.02. In the case of UGCAGAGGUCAACACAGCGUGGCAAAGUGGCUGUGGCUAUACUGGC [G1U C8G G40U C45G], the self-cleavage is reported as 0.1. Work on UGCAGAGCUUAAAACAGCGUGGCAAAGUGACUGUGGAUAGACUGCC [G1U C10U C13A G30A C37A] yielded a self-cleavage of 0.01. UGCAGAGGUCAACACAGCGUGGCAAAUUGGCUGUGGCUAGACUGCC [G1U C8G G27U] showed a self-cleavage of 0.02. UGCAGAGAUUAACAUAGCGUGGCAAAGUGGCUGUGGCUAUACUGCC [G1U C8A C10U C15U G40U] showed a self-cleavage of 0.04. UGCAGAGGUCAACACAGCGUGUCAAAGUGGCUGUGGCUAGACUGCC [G1U C8G G22U] gave a self-cleavage of 0.03. In the case of UGGGGAGCUCAACACAGCGUGGCAAAGUGGCUGUGGCUAGACUGCC [G1U C3G A4G], the self-cleavage is reported as 0.05. UGGAGAGCUGAACGCAGCGUGGCAAAGUGGCUGUGGCUAGACUGCC [G1U C3G C10G A14G] gave a self-cleavage of 0.06. UGCAGAGCUAAACACAGCGUGGCAAAGAGGCUGUGGAUAGACAGCC [G1U C10A U28A C37A U43A] gave a self-cleavage of 0.01. Work on UGCAGAGCUAAACACAGCGUGGCAAAGUGGCUGUGGCUAAAUUGCC [G1U C10A G40A C42U] yielded a self-cleavage of 0.01. With UGUAGAGCUCAACACAUCGGGGCAAAGUGGCUGUGGCUAGUCUGCC [G1U C3U G17U U20G A41U] the self-cleavage was 0.06. UGUAGAGCUCAACACAGAGUGGCAAAGUGGCUGUGGCUAGACUGCC [G1U C3U C18A] gave a self-cleavage of 0.13. With UGCAGAGCUCAAAACAGCGUGGCGAACUGGCUGUGGCCAGACUGCC [G1U C13A A24G G27C U38C] the self-cleavage was 0. UGCAGAGGUCGACACAGCGUGGCAAAGUGGCUGUGGCUAGACUGCC [G1U C8G A11G] showed a self-cleavage of 0.01. Work on UGCAGAGAUUAACAGAGCGUGGUAAAGUGGCUAUGCCUAGACUGCC [G1U C8A C10U C15G C23U G33A G36C] yielded a self-cleavage of 0. In the case of UGCAGAGGUCAACACAGCGUUGCAAAGUGGCUGUGGCUAGACUGCC [G1U C8G G21U], the self-cleavage is reported as 0.01. Variant UGCAGAGCUUAACACAGCGUGGCAAAAUUGCUGUGGCUAGACUGCC [G1U C10U G27A G29U] has a self-cleavage of 0.09. UGGAGAGCUCAACACAGCGUGGCAAAGUCGCUGUGGCUAGACUGCC [G1U C3G G29C] showed a self-cleavage of 0.04. UGGAGAGCCCAACACAGCGUGGCAAAGUGGCUAUGGCUAGACUGCC [G1U C3G U9C G33A] showed a self-cleavage of 0.04. Work on UGCAGAGUUCAACGCAGCAUGGCAAAGUGGCUGUGGCUAGACUGCC [G1U C8U A14G G19A] yielded a self-cleavage of 0.05. UGGAGAGCUAAACACAGAGUAGCAAAGUGGCUGUGGCUAGACAGCC [G1U C3G C10A C18A G21A U43A] gave a self-cleavage of 0.03. UGCAGAGCUGAACAUAGCGUGGCAAAGUGUCUGUGGCUAGACUGCU [G1U C10G C15U G30U C46U] showed a self-cleavage of 0.02. UGCAGAGUUCACCACAGCGUGGCAAAGUGGCUGUGGCUGGACUGCC [G1U C8U A12C A39G] gave a self-cleavage of 0.01. For UGCAGAGUUCAACACAGCGUGGCAAAGUGGCUGUGUCUAGACUGAC [G1U C8U G36U C45A], the self-cleavage was 0.06. Work on UGCAGAGCUUAACACAGCGUGGCAAAGUGGCUGUGGCUAGCCUGCC [G1U C10U A41C] yielded a self-cleavage of 0. Work on UGCAGAGAUCAACACACCGUGGCAAAGUGGCUGUGUUUAGCCUGCC [G1U C8A G17C G36U C37U A41C] yielded a self-cleavage of 0.02. For UGCAGAGAUCAACACAGCGUGGCAAAGUGGCUGAGGCUAGACUGCG [G1U C8A U34A C46G], the self-cleavage was 0.02. In the case of UGCAGAGCUUAACACAGCGUGGCAAAGUGGCUGUGGCUAGAGUGCC [G1U C10U C42G], the self-cleavage is reported as 0.01. UGCAGAGCUAAACACAGCGUGGCAAAGUGGCGGUGGCUAGACUUCC [G1U C10A U32G G44U] gave a self-cleavage of 0. Work on UGCAGAGAUCAACACAGCGUGGCAAAGUGGCUGUGGCACGACUGCC [G1U C8A U38A A39C] yielded a self-cleavage of 0.06. In the case of UGCAGAGCUCAAGAAAACGUGGCAUAGUGGCUGUGGCUAGACUGCC [G1U C13G C15A G17A A25U], the self-cleavage is reported as 0.12. Work on UGCAGAGAUCAACACAGAGUGGCAAAGAUGGUGUGGCUAGACUGCC [G1U C8A C18A U28A G29U C31G] yielded a self-cleavage of 0.01. UGCAGAGCUCAAAACAGCGUGGCAAAGUGGCUGUGGCCGGACUGCC [G1U C13A U38C A39G] gave a self-cleavage of 0.05. UGCAGAGCUCAAAACAGCGUGGCAAAGUGGCUGUGGCUAAACAGCC [G1U C13A G40A U43A] gave a self-cleavage of 0.03. In the case of UGAAGAGCUCAACACAGCGCGGGAAAGUGACUGUGGCUAGACUGCC [G1U C3A U20C C23G G30A], the self-cleavage is reported as 0.34. With UGCAGAGUUCAACACAGCGUGUCAAAGUGGCAGUGGCUAGACUCCC [G1U C8U G22U U32A G44C] the self-cleavage was 0.04. In the case of UGUAGAGCUUAAGACAGCGUGGCAAAGUGGCUGUGGCUAGAAUGCC [G1U C3U C10U C13G C42A], the self-cleavage is reported as 0.19. UGGAGAGCUCAACACAGUAUGGCAAAUUGGGUGUGGCUAGACUGCA [G1U C3G C18U G19A G27U C31G C46A] gave a self-cleavage of 0.03. In the case of UGUAGAGCUCAACACAGCUUGGCAAAGUGGCUGUGGCUAGACUGCC [G1U C3U G19U], the self-cleavage is reported as 0.13. UGGAGAGCUCAACACAGCGUGGCAAAGGGGCUGUGGCUAGACUGCC [G1U C3G U28G] gave a self-cleavage of 0.05. For UGGUGAGGUCAACACAGCGUGGCAAAGUGGCUGUGGCUGGACUGAC [G1U C3G A4U C8G A39G C45A], the self-cleavage was 0.26. UGCAGAGUUCAACACAGCGUUGCAAAGUGGCUGUGGCUAGACUGCC [G1U C8U G21U] gave a self-cleavage of 0.23. With UGCAGAGUUAAACACAGGGAGGCACAGUCGCUGUGGCUAGACUGGU [G1U C8U C10A C18G U20A A25C G29C C45G C46U] the self-cleavage was 0. UGCAGAGCUCAAAACAGCGUGUCAAUGUGGCUGUGGCUAGACUGCC [G1U C13A G22U A26U] gave a self-cleavage of 0.22. UGCAGAGCUGAACACAGCGAGGCAAAGUGGCUGUGGCUAUACUGCC [G1U C10G U20A G40U] showed a self-cleavage of 0.01. Variant UGCAGAGAUCAACACAGAGUGGCAAAUUGGCUGUGGCUAGACUGCC [G1U C8A C18A G27U] has a self-cleavage of 0.01. In the case of UGCAGAGUUCAACACAACGUGGCAAAGUGGAUGUGGCUAAACUGCC [G1U C8U G17A C31A G40A], the self-cleavage is reported as 0.02. UGCAGAGCUAAACACAGCGUGGCAGAGUGGCUGUGGCUAGACUGCC [G1U C10A A25G] gave a self-cleavage of 0.02. UGGAGAGCUAAACACCGUGUGGCAAAGUGGCUGUGGCUAGACUGCC [G1U C3G C10A A16C C18U] gave a self-cleavage of 0.02.

Reference: the RNAGym collection of RNA variant scans (doi:10.7554/elife.90254)
